Data: PubChem BioAssay AID1460 (National Center for Advancing Translational Sciences (NCATS), 2008)
Screen size: about 270,000 compounds; about 5,800 (2.1%) were called active. Inconclusive means that the source gave no clear call. Such entries were picked first, then a sample of the others. Calls follow the shape of the dose curve; as a rule, active = well fitted inhibition curve with a large enough effect; inconclusive = small, poorly fitted or top-dose-only effect; inactive = flat fitted curve, though single readings scatter. Where the call is inconclusive, the potency comes from a doubtful curve fit.

These molecules were tested against Microtubule-associated protein tau (Homo sapiens) (UniProt P10636) (assay: qHTS for Inhibitors of Tau Fibril Formation, Thioflavin T Binding). Conditions: recombinant tau K18 P301L (four-repeat tau fragment), heparin-induced fibrillization, ThT fluorescence; series mostly up to 57.4 µM.
How it was run: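 Heparin-induced (20 uM) aggregation of recombinant human K18 P301L tau, 15 uM unlabeled with 0.24 uM labeled, pH 7 acetate buffer, 6 hr at 37 C with compound. Fibrils quantified by 30 uM ThT fluorescence after 1 hr ambient incubation.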
Also: nearly all actives have a fitted effect of over 55% in size.
Potency is read from the fitted curve at half-maximal effect; tags tell the direction and shape of the fitted curve.

Chain of UniProt P10636 (P10636 whole entry, looked up, the tested form may be a part): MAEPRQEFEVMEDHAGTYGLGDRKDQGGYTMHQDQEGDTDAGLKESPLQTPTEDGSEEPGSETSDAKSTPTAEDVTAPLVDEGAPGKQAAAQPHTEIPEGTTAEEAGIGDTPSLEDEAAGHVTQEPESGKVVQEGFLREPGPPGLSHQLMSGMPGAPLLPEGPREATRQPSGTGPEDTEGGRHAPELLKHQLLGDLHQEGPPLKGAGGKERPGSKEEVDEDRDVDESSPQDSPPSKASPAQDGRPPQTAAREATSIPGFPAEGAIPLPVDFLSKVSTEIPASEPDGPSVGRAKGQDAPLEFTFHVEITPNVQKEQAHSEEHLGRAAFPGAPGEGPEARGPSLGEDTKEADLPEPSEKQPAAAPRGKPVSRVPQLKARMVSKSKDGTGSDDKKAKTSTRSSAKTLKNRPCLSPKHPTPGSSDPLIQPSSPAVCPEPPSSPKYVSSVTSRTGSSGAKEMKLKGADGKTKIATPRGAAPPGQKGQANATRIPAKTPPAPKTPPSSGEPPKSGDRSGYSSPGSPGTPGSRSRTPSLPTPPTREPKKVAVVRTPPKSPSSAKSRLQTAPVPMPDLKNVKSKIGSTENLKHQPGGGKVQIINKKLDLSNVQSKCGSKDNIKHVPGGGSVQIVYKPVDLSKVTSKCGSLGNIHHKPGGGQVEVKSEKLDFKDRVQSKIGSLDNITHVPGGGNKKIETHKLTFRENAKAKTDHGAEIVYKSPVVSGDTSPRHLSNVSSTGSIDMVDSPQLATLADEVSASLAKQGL

Row | SMILES | Potency
1 | O=C(N/N=C/c1ccccn1)c1ccc(N/N=C/c2ccccn2)cc1 | inconclusive: 5.01 µM [inhibitor, partial curve]
2 | CC(=O)NC(=S)NNC(=O)COc1ccc(Br)cc1 | inconclusive: 28.2 µM [inhibitor, partial curve]
3 | CN1CCN(C(=O)c2cn(C)c3ccc(S(=O)(=O)N(C)C4CCCCC4)cc3c2=O)CC1 | inactive
4 | COc1ccccc1CNc1nc(-c2ccco2)nn1S(=O)(=O)c1ccc2ccccc2c1 | inactive
5 | Cc1cccc(-c2noc(-c3ccccc3OCC(=O)Nc3ccc([N+](=O)[O-])cc3)n2)c1 | inconclusive: 14.1 µM [inhibitor, partial curve]
6 | O=C(c1cc2nc(-c3ccccc3)cc(-c3ccccc3)n2n1)N1CCCC1 | inconclusive: 39.8 µM [inhibitor, single point]
7 | O=C(/C=C/c1ccccc1)N1CCN(CCN2C(=O)c3cccc4cccc(c34)C2=O)CC1 | inconclusive: 12.6 µM [inhibitor, partial curve]
8 | CCNC(=S)N/N=C/c1cccc(/C=N/NC(=S)NCC)c1 | inactive
9 | Cc1ccc(C)c(NC(=O)CN(C)C(=O)Cc2ccccc2)c1 | inactive
10 | O=S(=O)(c1ccc(Cl)cc1)N1CCN(Cc2ccc(O)c3ncccc23)CC1 | inconclusive: 28.2 µM [inhibitor, single point]
11 | CN(C)c1ccc(C(CNC(=O)c2ccccc2)N2CCc3ccccc32)cc1 (stereo not drawn) | inconclusive: 14.1 µM [inhibitor, partial curve]
12 | O=[N+]([O-])c1ccc(N2CCCCC2)nc1N1CCCCC1 | inconclusive: 39.8 µM [inhibitor, partial curve]
13 | CCCC1OC23CCCCC2C(C#N)(C#N)C1(C#N)C(=N)O3 (stereo not drawn) | inconclusive: 39.8 µM [inhibitor, single point]
14 | Cc1c(N=C2SCC(=O)N2c2c(C)n(C)n(-c3ccccc3)c2=O)c(=O)n(-c2ccccc2)n1C | inconclusive: 0.158 µM [inhibitor, full curve, poor fit]
15 | Cc1cc(C)n2nc(C(=O)N/N=C/c3ccc(O)cc3)nc2n1 | inconclusive: 31.6 µM [inhibitor, single point]
16 | CCOC(=O)COc1ccc([N+](=O)[O-])cc1-c1ccnc2cc(-c3ccc(Cl)cc3)nn12 | inconclusive: 17.8 µM [inhibitor, single point]
17 | COc1cc([N+](=O)[O-])cc(/C=N/NC(=O)c2cc(C)nc3ccccc23)c1O | active: 14.1 µM
18 | CC(Nc1ccc(N2CCOCC2)cc1)C(=O)N1c2ccccc2CC1C (stereo not drawn) | inconclusive: 28.2 µM [inhibitor, partial curve]
19 | N/C(=N\OC(=O)COc1ccc(Br)cc1Cl)c1ccccn1 | inconclusive: 11.2 µM [inhibitor, partial curve]
20 | O=C1CC(SC2=NCCS2)C(=O)N1c1ccc(Br)cc1 (stereo not drawn) | inactive
21 | CN(C)S(=O)(=O)c1cccc(NC(=O)COC(=O)/C=C/c2ccc([N+](=O)[O-])cc2)c1 | inconclusive: 20 µM [inhibitor, partial curve]
22 | COc1cccc(N2CCN(c3ncnc4c3cnn4-c3ccc(C)cc3C)CC2)c1 | inconclusive: 12.6 µM [inhibitor, partial curve]
23 | CCCCC(=O)N(c1ccc2oc(C)c(C(C)=O)c2c1)S(=O)(=O)c1ccc(F)cc1C | inactive

Row | SMILES | Potency
24 | COc1ccc(-c2ccc(NS(=O)(=O)c3ccc(OC)c(OC)c3)cc2)nn1 | inconclusive: 28.2 µM [inhibitor, single point]
25 | Cc1scc2c1N(C(=O)CN1CCN(C)CC1)c1ccccc1NC2=O | inactive
26 | COc1ccc(-c2nnc(SCC(=O)c3[nH]c(C)c(C(C)=O)c3C)o2)cc1 | inconclusive: 0.708 µM [inhibitor, full curve]
27 | O=C(O)CC/C(=N\Nc1ccc(S(=O)(=O)N2CCCC2)cc1[N+](=O)[O-])c1cccs1 | active: 31.6 µM
28 | CCOc1sc2nc(C)n(CC(=O)Nc3cccc(C)c3)c(=O)c2c1C | inactive
29 | O=c1c(O)c(-c2ccc(O)c(O)c2)oc2c(OC[C@@H]3O[C@@H](O)[C@@H](O)[C@H](O)[C@H]3O)c(O)cc(O)c12 | active: 10 µM
30 | COc1cccc(-c2cn3nc4c(nc3n2)CCCC4)c1 | active: 14.1 µM
31 | COc1ccc(-c2noc(CCC(=O)N3CCN(c4cc(C)ccc4C)CC3)n2)cc1 | inconclusive: 10 µM [inhibitor, partial curve]
32 | COc1ccc(N2CCN(CCCNC(=O)CN3CCN(Cc4ccccc4C)C3=O)CC2)cc1 | inconclusive: 12.6 µM [inhibitor, partial curve]
33 | Cc1ccsc1-c1nc(CN2CCCC2c2ccc(F)cc2)c(C)o1 (stereo not drawn) | inconclusive: 15.8 µM [inhibitor, partial curve]
34 | CCN1CCc2nc3sc(C(=O)Nc4cccc(Cl)c4C)c(N)c3cc2C1 | active: 10 µM
35 | COc1ccc(/C=N/OC/C(O)=C(\C#N)c2nc3ccccc3[nH]2)cc1OC | inconclusive: 39.8 µM [inhibitor, single point]
36 | O=C1/C(=C/N(C(=O)c2ccco2)c2ccc(Cl)cc2)Sc2ccccc21 | inconclusive: 5.62 µM [inhibitor, partial curve]
37 | CCOc1cc(C(=O)OCc2cc(=O)n3nc(CC)sc3n2)cc(OCC)c1OCC | inconclusive: 15.8 µM [inhibitor, partial curve]
38 | O=C(NCCOc1nc(N2CCCCC2)nc(N2CCOCC2)n1)Nc1ccccc1 | inactive
39 | Cc1ccc(Sc2c([N+](=O)[O-])ncn2C)cc1 | inconclusive: 15.8 µM [inhibitor, partial curve]
40 | Cc1ccc(O)c(NC(=O)CCCC(=O)O)c1 | inactive
41 | N#C/C(=C/c1ccc(-c2ccccc2[N+](=O)[O-])o1)C(=O)NCCN1CCCCC1 | inconclusive: 39.8 µM [inhibitor, single point]
42 | O=C(COC(=O)c1cc(-c2ccccc2)nc2ccccc12)c1ccc(Br)cc1 | inactive
43 | C=CCOC(=O)C1=C[C@@H](c2ccc(Br)cc2)C[C@@H](OCc2ccc(CO)cc2)O1 | inconclusive: 0.447 µM [inhibitor, partial curve]
44 | Cc1ccc(C(=O)Nc2ccc3nc(SCC(=O)N4CCCc5ccccc54)sc3c2)cc1 | inconclusive: 0.0251 µM [inhibitor, full curve, poor fit]
45 | O=S(=O)(c1ccc(Br)cc1)c1nnn2c1nc(N1CCOCC1)c1sccc12 | inactive
46 | O=C(CN1CCCCC1)NNc1nc(-c2ccccc2)c2cc(Br)ccc2n1 | inconclusive: 39.8 µM [inhibitor, single point]

Row | SMILES | Potency
47 | CCc1ccccc1NC(=O)CC1CS(=O)(=O)CC1CC(=O)Nc1ccccc1CC (stereo not drawn) | inactive
48 | O=C1C2CCCCC2C(=O)N1c1ccc(NC2CCCCC2)c([N+](=O)[O-])c1 (stereo not drawn) | inconclusive: 14.1 µM [inhibitor, partial curve]
49 | Cc1nnc2sc(SCC(=O)Nc3ccc(Cl)cc3)nn2c1=O | inconclusive: 5.62 µM [inhibitor, partial curve]
50 | CN(C)c1ccc(/C=C2\NC(=S)N(Cc3ccccc3)C2=O)cc1 | inconclusive: 3.55 µM [inhibitor, full curve]
51 | C=CCn1c(SCC(=O)NCC2CCCO2)nc2scc(-c3ccco3)c2c1=O (stereo not drawn) | inconclusive: 28.2 µM [inhibitor, single point]
52 | CCOc1ccc(OCc2ccc(C(=O)N3CCc4ccccc4C3)o2)cc1 | inconclusive: 20 µM [inhibitor, partial curve]
53 | CCOc1cc(NC(=S)Nc2cccc(OC)c2)c(OCC)cc1NC(=O)c1ccc(C)cc1 | inconclusive: 11.2 µM [inhibitor, partial curve]
54 | Cc1c(C(=O)NCc2cccc(Cl)c2)sc2nc3n(c(=O)c12)CCC3 | inactive
55 | C=CCSC1=N/C(=C\c2cc(OCC)c(OC(C)=O)c([N+](=O)[O-])c2)C(=O)S1 | inactive
56 | O=C(Nc1cccc(C(F)(F)F)c1)c1cccc(C(=O)Nc2cccc(C(F)(F)F)c2)c1 | inactive
57 | Cc1ccc(C)c(C(=O)O/N=C(\N)c2ccc(Br)cc2)c1 | inconclusive: 14.1 µM [inhibitor, partial curve]
58 | O=C1CCCN1CCC1CCN(C2CC(=O)N(c3ccc(F)cc3)C2=O)CC1 (stereo not drawn) | inactive
59 | O=C1NCCc2c1[nH]c1ccc([N+](=O)[O-])cc21 | inconclusive: 22.4 µM [inhibitor, single point]
60 | Cc1cccc(Oc2nc(-c3ccccn3)nc3ccccc23)c1 | inconclusive: 28.2 µM [inhibitor, partial curve]
61 | COc1ccc(-c2nc(C)c(C(C)=O)n2O)cc1OC | inconclusive: 0.199 µM [inhibitor, partial curve, poor fit]
62 | COCCCNC(=O)CCCn1c(=O)c2cccn2c2ccccc21 | inconclusive: 1.58 µM [inhibitor, full curve]
63 | Cc1cccc(C(=O)NNC(=O)c2cc3cc4ccccc4nc3s2)c1 | inconclusive: 1.58 µM [inhibitor, full curve]
64 | O=C1OCC2=C1C(c1ccc(Cl)cc1)CC(=O)N2c1ccc(F)cc1 (stereo not drawn) | inactive
65 | Cc1ccc(S(C)(=O)=O)cc1S(=O)(=O)Nc1cccc(Cl)c1 | inactive
66 | CCc1ccccc1NC(=O)c1ccc2c(c1)nnn2C1CCCC1 | inconclusive: 20 µM [inhibitor, single point]
67 | O=c1[nH]n(-c2ccc(Cl)cc2)c2ncccc12 | inconclusive: 11.2 µM [inhibitor, partial curve]
68 | COc1cccc(-n2nc(C(=O)O)c3ccccc3c2=O)c1 | inactive
